Laboratory results as given in paper PMC4336329 (PLoS ONE, 2015).
The campaign covered roughly 310,000 compounds. About 14,000 (4.5%) showed an effect of 50% or more. Effects have a minus sign here. The list shows a part of the results.

These compounds were tested against human ether-à-go-go-related gene (hERG) potassium channel (human, UniProt Q12809) (assay: primary screen, population patch clamp on CHO cells stably expressing hERG).
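Also: peak tail current of the secondary pulse compared with the same well before compound.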

human ether-à-go-go-related gene (hERG) potassium channel, sequence (Q12809 whole entry, looked up): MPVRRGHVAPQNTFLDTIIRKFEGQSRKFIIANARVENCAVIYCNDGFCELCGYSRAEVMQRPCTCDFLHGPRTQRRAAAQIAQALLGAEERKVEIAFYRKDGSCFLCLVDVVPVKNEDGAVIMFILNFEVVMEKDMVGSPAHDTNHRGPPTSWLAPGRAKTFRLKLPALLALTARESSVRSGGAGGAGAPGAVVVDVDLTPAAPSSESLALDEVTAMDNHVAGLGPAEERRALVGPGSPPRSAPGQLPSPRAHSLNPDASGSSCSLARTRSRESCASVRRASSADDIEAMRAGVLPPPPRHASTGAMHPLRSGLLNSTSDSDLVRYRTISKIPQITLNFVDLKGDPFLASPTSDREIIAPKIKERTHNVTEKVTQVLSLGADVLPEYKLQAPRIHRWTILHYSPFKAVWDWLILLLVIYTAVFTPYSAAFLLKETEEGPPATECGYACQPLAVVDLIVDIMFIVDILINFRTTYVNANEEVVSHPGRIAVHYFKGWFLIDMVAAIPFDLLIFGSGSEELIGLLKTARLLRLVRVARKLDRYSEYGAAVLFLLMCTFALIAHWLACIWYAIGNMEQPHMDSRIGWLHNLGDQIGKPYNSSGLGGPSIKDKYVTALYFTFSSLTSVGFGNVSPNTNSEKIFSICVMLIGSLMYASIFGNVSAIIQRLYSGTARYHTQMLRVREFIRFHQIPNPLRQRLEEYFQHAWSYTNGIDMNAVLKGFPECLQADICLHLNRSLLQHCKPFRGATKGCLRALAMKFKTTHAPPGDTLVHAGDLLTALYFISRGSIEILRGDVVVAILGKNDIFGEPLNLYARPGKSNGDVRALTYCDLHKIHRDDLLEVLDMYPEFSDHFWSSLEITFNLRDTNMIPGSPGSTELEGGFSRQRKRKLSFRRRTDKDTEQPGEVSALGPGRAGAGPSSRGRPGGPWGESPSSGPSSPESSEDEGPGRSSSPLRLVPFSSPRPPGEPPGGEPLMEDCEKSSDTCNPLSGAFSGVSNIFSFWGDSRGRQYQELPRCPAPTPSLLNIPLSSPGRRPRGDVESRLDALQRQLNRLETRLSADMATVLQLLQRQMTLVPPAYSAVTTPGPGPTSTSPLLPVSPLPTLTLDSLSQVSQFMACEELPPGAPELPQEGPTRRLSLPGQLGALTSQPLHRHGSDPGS

| SMILES | hERG current change (%, negative = inhibition) at 10uM [%] |
| --- | --- |
| COc1ccc(C2CC(c3ccc(Br)cc3)Nc3nc(N)nn32)cc1 (stereo not drawn) | -43.5 |
| COc1ccc(N2CCN(S(=O)(=O)c3ccc(Cl)s3)CC2)cc1 | 24.2 |
| Cc1c(Cl)c(=O)oc2cc(OCC(=O)NCc3cccs3)ccc12 | -1.92 |
| O=C(CCc1nnc(Cc2ccc(-c3ccccc3)cc2)o1)NCCc1cccnc1 | -18.9 |
| CCc1nnc(NC(=O)/C=C/c2cccs2)s1 | 17.9 |
| CN(C)c1ccc(C(CNC(=O)c2ccc(C#N)cc2)c2c[nH]c3ccccc23)cc1 (stereo not drawn) | -16.8 |
| COc1ccc(C(CNC(=O)C(C)(C)Oc2ccc(Cl)cc2)N2CCCC2)cc1 (stereo not drawn) | -50.1 |
| Cc1cccc2cc(/C=C/C(=O)c3ccco3)c(Cl)nc12 | 12.9 |
| Cn1c(SCC(=O)NC2CCCCC2)nnc1-c1ccccn1 | 4.32 |
| O=C(CCC(=O)N1CCC2(CC1)OCCO2)Nc1nnc(C2CCCCC2)s1 | 15.8 |
| COc1cccc(N=Nc2ccc3ccccc3c2O)c1 | 32.2 |
| Cc1ccc(-c2nc3c(=O)n(C)c4ccccc4c3o2)cc1 | 22.3 |
| COc1ccc(-c2noc3c2-c2nc(C(C)C)sc2CC3)cc1 | 7.86 |
| O=c1[nH]c(=S)[nH]c(O)c1N=Nc1cccc(S(=O)(=O)N2CCOCC2)c1 | 9.03 |
| Cc1ccc2c(c1)N(CCC(=O)NCc1cccs1)C(=O)C(C)O2 (stereo not drawn) | 9.51 |
| Cc1ccc(C2NC(=S)NC(c3ccc(C)cc3)C23C(=O)NC(=O)NC3=O)cc1 (stereo not drawn) | 12.3 |
| O=C(CC1C(=O)NCCN1Cc1ccc(Cl)c(F)c1)NC1CCCCC1 (stereo not drawn) | -8.15 |
| CCn1nc(C(=O)Nc2ccc(S(=O)(=O)Nc3ncccn3)cc2)c2ccccc2c1=O | 18.1 |
| COc1ccc(S(=O)(=O)N2CC(C(=O)O)Oc3ccc(Cl)cc32)cc1 (stereo not drawn) | 21 |
| Cc1cc(CNC(=O)c2cc(COc3ccc(F)c(F)c3)on2)nn1C | -23.5 |
| CCCCC(=O)Nc1ccc(N2CCN(S(C)(=O)=O)CC2)cc1 | -19.8 |
| Cc1onc(-c2c(Cl)cccc2Cl)c1C(=O)N=C(N)N1CCCC1 | 10.7 |
| COc1ccc(Cc2nnc(SCC(=O)c3cccc([N+](=O)[O-])c3)n2C)cc1 | 0.41 |
| COc1ccccc1NC(=O)N1CCCC(c2nc3c(nnn3Cc3ccc(C)cc3)c(=O)[nH]2)C1 (stereo not drawn) | -18.6 |
